# Experimental data published in the supplement of paper PMC7125110.
# ± gives the standard error. Variants at the floor of the assay are shown more often than the library holds them.
# B1: glmS ribozyme (parent)
# chain: AUAAAAGCGCCAGAACUACAGAAAUGUAGUUGACGAGGAGGAGGUUUAUCGAAUUUUCGGCGGAUGCCUCCAAA
# Key:
# Settings in all cases: with glucosamine-6-phosphate
# [1] = variants of: B1; assay: self-cleavage kobs at 40 uM GlcN6P; higher = faster cleavage; RNA array
# Procedure, shortened: (§1)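 Over ~14 h at 37 °C, tiles were imaged as glucosamine-6-phosphate (40 μM to 10 mM) in HEPES/KCl/Mg(OAc)2 buffer flowed across sequenced MiSeq chips. The chips carried barcoded ribozyme variants transcribed in situ by E. coli RNA polymerase and tracked with a hybridised Cy3 probe. After normalisation to baseline and to non-cleaving reference variants, one- or two-exponential decay fits of per-tile medians gave kobs. kcat and KM followed from weighted Michaelis–Menten fits across concentrations.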
# [2] = variants of: B1; assay: self-cleavage kobs at 10000 uM GlcN6P; higher = faster cleavage; RNA array
# Procedure, shortened: as §1
# [3] = variants of: B1; assay: self-cleavage kobs at 640 uM GlcN6P; higher = faster cleavage; RNA array
# Procedure, shortened: as §1
# [4] = variants of: B1; assay: self-cleavage kobs at 160 uM GlcN6P; higher = faster cleavage; RNA array
# Procedure, shortened: as §1
# [5] = variants of: B1; assay: self-cleavage kobs at 2500 uM GlcN6P; higher = faster cleavage; RNA array
# Procedure, shortened: as §1
Variant,self-cleavage kobs at 40 uM GlcN6P [1] [s⁻¹],self-cleavage kobs at 10000 uM GlcN6P [2] [s⁻¹],self-cleavage kobs at 640 uM GlcN6P [3] [s⁻¹],self-cleavage kobs at 160 uM GlcN6P [4] [s⁻¹],self-cleavage kobs at 2500 uM GlcN6P [5] [s⁻¹]
AUAAAAGAGCGGGAACUACAGAAAUGUAGUUGACGAGGAGGAGGUUUAUCGAAUUUUCGGCGGAUGCUUCCAAA [C8A C11G A12G C68U],< 1e-05,–,–,–,–
AUAAAAGAGCGAGAACUACAGAAAUGUAGUUGACGAGGAGGAGGUGUAUCGAAUUUUCGGCGGAUGCCUCCAAA [C8A C11G U46G],< 1e-05,< 1e-05,–,–,–
AUAAAAGAGCGAGAACUACAGAAAUGUAGUUGACGAGGAGGAGGUUUAUCGAAUUGUCGGCGGAUGCCUCCAAA [C8A C11G U56G],< 1e-05,–,< 1e-05,< 1e-05,< 1e-05
AUAAAAGAGCCAGAACUACAGAAAUGUAGUUGAAGAGGAGCAGGUUUAUCGAAGUUUCGGCGGAUGCCUUCAAA [C8A C34A G41C U54G C70U],< 1e-05,< 1e-05,–,–,–
AUAAAAGAGCCAGAACUACAGAAAUGUAGUUGACGAGGAGGAGGUUUAUCGAAUUUUUGGCGGAUGCCUCCAAA [C8A C58U],< 1e-05,–,–,–,–
AUAAAAGAUUCAGAACUACAGAAAUGUAGUUGACGAGGAGGAGAUUUAUCGAAUUUUCGGCGGAUGCCUCCAAA [C8A G9U C10U G44A],< 1e-05,< 1e-05,–,–,–
AUAAAAGAGCCAGAACUACAGAAAUGUACUUGACAAGGAGGAGGUUUAUCGAAUUUUCGGCGGAUGGCUCCAAA [C8A G29C G35A C67G],< 1e-05,–,–,–,–
AUAAAAGAGCCAGAACUACAGAAAUGUACUUGACGAUGAGGAGGUUUAUCGAAUUUUCGGACGAUGCCUCCAAA [C8A G29C G37U C61A G62C],< 1e-05,< 1e-05,–,–,–
AUAAAAGAGCCAGAACUACAGAAAUGUAUUUGACGAGGAGGAGGUUUAUUUAAUUUUCGGCGGAUGCGUCCAAA [C8A G29U C50U G51U C68G],6.11e-05 ± 2.7e-05,–,–,–,–
AUAAAAGAGCCAGAACUACAGAAAUGUAGUUGACAAGGAGGAGGUUUAUCGAAUUUUCGGCGGAUGCCUCCAAA [C8A G35A],< 1e-05,< 1e-05,< 1e-05,< 1e-05,< 1e-05
AUAAAAGAGCCAGAACUACAGAAAUGUAGUUGACGAGUAGGAGGUUUAUCGAAUUUUCGGCGGAUUCCUCCAAA [C8A G38U G66U],< 1e-05,–,–,–,–
AUAAAAGAGCCAGAACUACAGAAAUGUAGUUGACGAGGAGGAAGUUUAUCGAAUUUUCGGCGGAUGCCUCCAAA [C8A G43A],< 1e-05,–,< 1e-05,< 1e-05,< 1e-05
AUAAAAGAGCCAGAACUACAGAAAUGUAGUUGACGAGGAGGAGGUUUAUCGAAUUUUCGGCGGAUCCCUCCAAA [C8A G66C],< 1e-05,–,–,–,< 1e-05
AUAAAAGAGCCAGAACUACAGAAAUGUAGUUGACGAGGAGGAGGUUAAUCGAAUUUUCGGCGGAUGCCUCCAAA [C8A U47A],< 1e-05,< 1e-05,< 1e-05,< 1e-05,< 1e-05
AUAAAAGAGCCAGAACUACAGAAAUGUAGUUGACGAGGAGGAGGUUCAUCGAAUUUUCGGCGGAUGCCUCCAAA [C8A U47C],< 1e-05,< 1e-05,< 1e-05,–,< 1e-05
AUAAAAGGGCCAGCACUACAGAAAUGUAGUUGACGAGGAGGAGGUUUAUCGAAUUUUCGGCGGAUGCUUCCAAA [C8G A14C C68U],< 1e-05,–,–,–,–

Variant,self-cleavage kobs at 40 uM GlcN6P [1] [s⁻¹],self-cleavage kobs at 10000 uM GlcN6P [2] [s⁻¹],self-cleavage kobs at 640 uM GlcN6P [3] [s⁻¹],self-cleavage kobs at 160 uM GlcN6P [4] [s⁻¹],self-cleavage kobs at 2500 uM GlcN6P [5] [s⁻¹]
AUAAAAGGGCCAGGACUACAGAAAUGUAGUUGACGAGGAGGAGGUUUAUCGAAUUUACGGCGGAUGCCUCCAAA [C8G A14G U57A],< 1e-05,< 1e-05,–,–,< 1e-05
AUAAAAGGGCCAGAGCUACAGAAAUGUAGUUGACGAGGAGGAGGUUUAUCGAAUUUUCGGCGGAUGCCUCCAAA [C8G A15G],< 1e-05,< 1e-05,< 1e-05,< 1e-05,< 1e-05
AUAAAAGGGCCAGAACUACAGAAAUGUAGUUGACGUGGAGGAGGUUUAUCGAAUUUUCGCCGGAUGCCUCCAAA [C8G A36U G60C],< 1e-05,–,–,–,–
AUAAAAGGGCCAGAACUACAGAAAUGUAGUUGACGAGGUGGAGGUUUAUCGAAUUUUCGGCGGAUGACUCCAAA [C8G A39U C67A],< 1e-05,–,–,–,–
AUAAAAGGGCCAGAACUACAGAAAUGUAGUUGACGAGGAGGGGGUUUAUCGAAUUUUCGGCGGAUGCGUCCAAA [C8G A42G C68G],< 1e-05,–,–,–,–
AUAAAAGGGCCAGAACUACAGAAAUGUAGUUGACGAGGAGGAGGUUUUUCGAAUUUUCGGCGGAUGCAUCCAAA [C8G A48U C68A],< 1e-05,–,–,–,–
AUAAAAGGGCCAGAACUACAGAAAUGUAGUUGACGAGGAGGAGGUUUAUCGAAUUUUCGGCGGUUGCCUCCAAA [C8G A64U],< 1e-05,< 1e-05,< 1e-05,< 1e-05,< 1e-05
AUAAAAGGGUCAGAACUACAGAAAUGUAGUUGACGAGGAGGAGGUUUUUCGAAUUUUCGGCGGUUGCCUCCAAA [C8G C10U A48U A64U],< 1e-05,< 1e-05,–,–,–
AUAAAAGGGCAAGAACUACAGAAAUGUAGUUGACGAGGAGGAGGUUUAUGGAAUUUUCGGCGGAUGCCUCCAAA [C8G C11A C50G],0.000193 ± 4.9e-05,–,–,–,–
AUAAAAGGGCUAGAACUACAGAAAUGUAGUUGACGAGGAGGAGGUUUAUCGAAUUUUCGGCGGAUGCCUCCAAA [C8G C11U],< 1e-05,< 1e-05,< 1e-05,< 1e-05,< 1e-05
AUAAAAGGGCCAGAACUACAGAAAUGUAGUUGAUGAGGAGGAGGUUUAUCGAAUGUUCGGCGGAUGCCUCCAAA [C8G C34U U55G],< 1e-05,–,–,–,–
AUAAAAGGGCCAGAACUACAGAAAUGUAGUUGACGAGGAGGAGGUUUAUCGAAUUUUCGGAGGAUCCCUCCAAA [C8G C61A G66C],< 1e-05,–,–,–,< 1e-05
AUAAAAGGGCCAGAACUACAGAAAUGUAGUUGACGAGGAGGAGGUUUAUCGAAUUUUCGGCGGAUGCCUGCAAA [C8G C70G],< 1e-05,–,–,< 1e-05,< 1e-05
AUAAAAGGUCCAGAACUACAGAAAUGUAGUUGACGAGGAGGAGGUUUAUCGAAUUUUCGGCGGAUGCCUCCAAA [C8G G9U],< 1e-05,–,< 1e-05,–,–
AUAAAAGGUCCAGAACUACAGAAAUGUAGUUGACGAGGAUGCCGUUUAUCGAAUUUUCGGCGGAUGCCUCCAAA [C8G G9U G40U A42C G43C],< 1e-05,< 1e-05,–,–,–
AUAAAAGGGCCAUAACUACAGAAAUGUAGCUGACGAGGAGGAUGUUUAUCGAAUUUUCGGCGGAUGCCUCCAAA [C8G G13U U30C G43U],< 1e-05,–,–,–,–
